{"source": "PubChem BioAssay AID463173", "about": "(ICCB-Longwood Screening Facility, Harvard Medical School, 2010)", "note": "Screen size: about 52,000 compounds; about 4,300 (8.3%) were called active. Cut-off read from the data, not from the text of the source: active = survival mostly below about 52% (no sharp cut-off); inactive = mostly above about 56%. The list shows a part of the results.", "data": [{"tested_on": "DeltatarO mutant", "assay": "S. aureus survival, RN4220 and DeltatarO strains – OD600, teichoic acid synthesis inhibitors, primary screen (AID 463173)", "conditions": "S. aureus RN4220 wild type/DeltatarO growth, OD600, 18 h, stronger effect = lower value, screened at 18.75 µg/mL (by protocol)", "values": [{"smiles": "COc1ccc(NC(=O)CN2C(=O)CCc3cc(S(=O)(=O)N4CCOCC4)ccc32)c(OC)c1", "survival": "inactive: 80%"}, {"smiles": "CCN(C(=O)CSc1nnc(-c2cc3occc3n2C)n1-c1ccccc1C)c1cccc(C)c1", "survival": "inactive: 92%"}, {"smiles": "COc1ccc(-c2cn3c(n2)sc2cc(C(=O)NCCCN4CCCCC4)ccc23)cc1", "survival": "inactive: 69%"}, {"smiles": "Cc1ccc(NC(=O)c2cc3c(-c4ccccc4)nn(-c4ccccc4)c3s2)cc1", "survival": "inactive: 50%"}, {"smiles": "O=C(Nc1ccc(Br)cc1F)C(NS(=O)(=O)c1cccc2nsnc12)c1ccccc1", "note": "(configuration not stated)", "survival": "inactive: 78%"}, {"smiles": "CCOc1ccccc1NC(=O)Nc1cc(C(=O)NCc2ccc(C)cc2)ccc1N1CCCC1", "survival": "inactive: 83%"}, {"smiles": "COc1ccc(OC)c(NC(=O)c2c(NCc3ccc(OC)c(OC)c3)sc3c2CCC3)c1", "survival": "inactive: 101%"}, {"smiles": "C/C(=N\\NC(N)=O)C1CC(Cc2ccccc2)C(=O)O1", "note": "(configuration not stated)", "survival": "inactive: 57%"}, {"smiles": "O=C(C1CCCCC1)N1CCC(n2nnc3ccccc32)CC1", "survival": "inactive: 95%"}, {"smiles": "COc1ccc(NC(=O)Cn2c(=O)n(CC(=O)NCCc3ccccc3)c(=O)c3ccccc32)cc1", "survival": "inactive: 82%"}, {"smiles": "CCn1c(SCc2ccc(C)cc2)nnc1-c1ccc(S(=O)(=O)N2CCOCC2)cc1", "survival": "inactive: 100%"}, {"smiles": "CCc1ccc(NS(=O)(=O)c2ccc3[nH]cc(C(=O)NCc4ccc(C)cc4)c(=O)c3c2)cc1", "survival": "inactive: 65%"}, {"smiles": "Clc1ccc2nc(Nc3ccccc3Cl)nc(-c3ccccc3)c2c1", "survival": "inactive: 75%"}, {"smiles": "CCOc1ccc(-n2c(=O)c3c4c(sc3n(Cc3cccc(C)c3)c2=O)CCCC4)cc1", "survival": "inactive: 57%"}, {"smiles": "Cc1ccc(-c2cn3c(n2)sc2cc(C(=O)NC4CCCc5ccccc54)ccc23)cc1", "note": "(configuration not stated)", "survival": "inactive: 77%"}, {"smiles": "CC(C)(C)c1ccc(CN(Cc2ccco2)Cc2nnnn2C2CCCCC2)cc1", "survival": "inactive: 105%"}, {"smiles": "CCOCCCNC(=O)C1CCN(c2cc(C)nc3c(-c4ccc(Cl)cc4)c(C)nn23)CC1", "survival": "inactive: 83%"}, {"smiles": "CCc1ccc(NCc2cc3cc4c(cc3n(CC(=O)Nc3ccccc3Cl)c2=O)OCO4)cc1", "survival": "inactive: 73%"}, {"smiles": "CCOc1ccc(-c2c(C)nn3c(C)c(C(=O)NCCc4ccccc4)cnc23)cc1OCC", "survival": "inactive: 54%"}, {"smiles": "COc1ccc2c(c1)c1c(c(=O)n(-c3ccc(F)c(Cl)c3)c(=O)n1CC(N)=O)n2C", "survival": "inactive: 96%"}, {"smiles": "CC(=O)Nc1ccc(S(=O)(=O)NC2(C(F)(F)F)NC(=O)N(c3ccccc3F)C2=O)cc1", "note": "(configuration not stated)", "survival": "inactive: 82%"}, {"smiles": "CCC1CN(C(=O)Nc2cccc(OC)c2)c2ccccc2O1", "note": "(configuration not stated)", "survival": "inactive: 97%"}, {"smiles": "COc1cccc2c1cc1c(=O)n(CC(=O)O)nc(C)n12", "survival": "inactive: 106%"}, {"smiles": "CCOc1ccc(Nc2sc(C(=O)c3ccc4c(c3)OCO4)c(N)c2S(=O)(=O)c2ccc(C)cc2)cc1", "survival": "inactive: 77%"}, {"smiles": "Cn1nc(C(=O)N2CCN(c3ccc(Cl)cc3)CC2)c2c1-c1ccccc1S(=O)(=O)C2", "survival": "inactive: 51%"}, {"smiles": "COc1ccccc1CNC(=O)CSc1cc(=O)n(C)c2ccccc12", "survival": "inactive: 94%"}, {"smiles": "COc1ccc(-c2cc(C(F)(F)F)nc(NCc3ccc(Cl)cc3)n2)cc1", "survival": "active: 3%"}, {"smiles": "O=C(Nc1cc(-c2nc3ccccc3o2)ccc1Cl)c1ccc(Br)o1", "survival": "active: 54%"}, {"smiles": "Cc1c(C(=O)NCc2ccccc2)sc2nc[nH]c(=O)c12", "survival": "inactive: 94%"}, {"smiles": "Cc1ccc(CCNc2nc3c(S(=O)(=O)c4ccccc4)nnn3c3ccsc23)cc1", "survival": "active: 62%"}, {"smiles": "COc1cc(-c2noc(-c3ccc(N(C)C)c([N+](=O)[O-])c3)n2)cc(OC)c1OC", "survival": "inactive: 77%"}, {"smiles": "Cc1ccccc1Cn1c2ccccc2c2cnn(CC(=O)NCCCc3ccccc3)c(=O)c21", "survival": "inactive: 84%"}, {"smiles": "N#Cc1ccc(CSCC(=O)NN=C2CCCC2)cc1", "survival": "inactive: 65%"}, {"smiles": "O=C(Cn1c(-c2cccs2)cc2cc(F)ccc21)N1CCN(c2cccc(Cl)c2)CC1", "survival": "inactive: 91%"}, {"smiles": "COc1cccc(Cc2nc3ccccc3nc2SCC(=O)N2CCN(c3ccccc3)CC2)c1", "survival": "inactive: 92%"}, {"smiles": "COc1ccc(CN(Cc2ccco2)C(=O)c2ccccc2F)cc1", "survival": "inactive: 74%"}, {"smiles": "CCn1c(CC2C(=O)Nc3ccccc32)nc2ccccc2c1=O", "note": "(configuration not stated)", "survival": "inactive: 76%"}, {"smiles": "Cc1cccc(C)c1NS(=O)(=O)c1ccc2c(c1)[C@H]1C=CC[C@H]1[C@@H](c1ccc(Cl)cc1)N2", "survival": "inactive: 53%"}, {"smiles": "CCOc1ccc(C2C(C(=O)Nc3ccccc3OC)=C(C)Nc3c(C(=O)Nc4cccc(C)c4)cnn32)cc1", "note": "(configuration not stated)", "survival": "inactive: 88%"}, {"smiles": "O=C1CC(c2nnc(Cc3cccc(Cl)c3)o2)CN1c1ccccc1", "note": "(configuration not stated)", "survival": "inactive: 126%"}, {"smiles": "COc1cccc(-c2cc(C(=O)Nc3ccc(Br)c(C)c3)[nH]n2)c1", "survival": "inactive: 78%"}, {"smiles": "Cc1ccc2c(c1)cc1c(=O)n(Cc3ccc(Cl)cc3)nc(C)n12", "survival": "inactive: 96%"}, {"smiles": "COc1ccc(-n2c(=O)c3ccc(C(=O)NCc4ccc(C)cc4)cc3n(Cc3cccc(Cl)c3)c2=O)cc1", "survival": "inactive: 75%"}, {"smiles": "CN(C)CCNc1ncnc2ccccc12", "survival": "inactive: 81%"}, {"smiles": "Cc1oc(-c2ccc(C(=O)Nc3cccc(C(F)(F)F)c3)cc2)nc1CSc1ccccc1", "survival": "inactive: 90%"}, {"smiles": "COc1ccc(Nc2nc3ccc(Cl)cc3n3nnnc23)cc1OC", "survival": "inactive: 102%"}, {"smiles": "CCc1nnc2c3ccccc3nc(Nc3ccccc3OC)n12", "survival": "inactive: 57%"}, {"smiles": "Cc1cccc(N2CCN(S(=O)(=O)c3ccc4oc(=O)c5ncn(C)c5c4c3)CC2)c1C", "survival": "inactive: 77%"}, {"smiles": "O=C(CCCCn1c(=O)c2ccccc2n(CC(=O)Nc2ccccc2)c1=O)NCc1ccccc1Cl", "survival": "inactive: 93%"}, {"smiles": "Cc1c(C)n(Cc2ccccc2)c2ccc(C(=O)NCc3ccc(OC(C)C)cc3)cc12", "survival": "inactive: 115%"}, {"smiles": "CCOC(=O)c1sc(NC(=O)C(C)Sc2nc(-c3ccccc3)cc(C(F)(F)F)n2)c(C(=O)OC)c1C", "note": "(configuration not stated)", "survival": "inactive: 159%"}, {"smiles": "Cc1ccc(NC(=O)c2cnc(N3CCCCC3)c3ccccc23)cc1Cl", "survival": "inactive: 87%"}, {"smiles": "Cc1n[nH]c(C)c1CCc1nc2c3ccccc3nc(SCC(=O)Nc3ccc(F)cc3)n2n1", "survival": "inactive: 115%"}, {"smiles": "Cc1ccc(OCCn2cc(C(=O)c3ccco3)c3ccccc32)cc1C", "survival": "active: 27%"}, {"smiles": "CCCC(=O)C1=C(c2ccc(C)cc2)N(C(=O)CCC)n2cnnc2S1", "survival": "inactive: 130%"}, {"smiles": "COc1cccc(-c2nc3cc(C)ccc3o2)c1", "survival": "inactive: 103%"}, {"smiles": "COc1ccc(-c2nc3scc(CCNS(=O)(=O)c4ccc(F)c(C(F)(F)F)c4)n3n2)cc1OC", "survival": "inactive: 88%"}, {"smiles": "CCN1CCN(c2cc(C)c3cc(NC(=O)c4cccc(Cl)c4)ccc3n2)CC1", "survival": "active: 23%"}, {"smiles": "c1ccc(-c2cc3ccsc3s2)cc1", "survival": "inactive: 99%"}, {"smiles": "O=C(Oc1ccccc1Cl)c1cc(-c2ccc3c(c2)OCCO3)on1", "survival": "active: -2%"}, {"smiles": "O=C1CN(c2ccccc2)C(=Nc2ccccc2)S1", "survival": "inactive: 61%"}, {"smiles": "O=C(Nc1nnc(S(=O)(=O)N2CCCCC2)s1)c1ccc(F)cc1", "survival": "inactive: 79%"}, {"smiles": "Cc1cc(C)c(Cn2c3ccccc3c3cnn(CC(=O)NCc4ccc(Cl)cc4)c(=O)c32)c(C)c1", "survival": "inactive: 123%"}, {"smiles": "CC1=C(C(=O)Nc2ccccc2C)C(c2ccco2)n2ncnc2N1", "note": "(configuration not stated)", "survival": "inactive: 101%"}, {"smiles": "CCOc1ccc(NC(=O)c2cc(S(=O)(=O)N3CCCC3)c[nH]2)cc1", "survival": "inactive: 108%"}, {"smiles": "Cc1noc(Cn2c(=O)c3ccccc3n(CC(=O)Nc3ccc(F)cc3F)c2=O)n1", "survival": "inactive: 88%"}, {"smiles": "NC(=O)c1oc2ccccc2c1NC(=O)c1ccccc1", "survival": "inactive: 68%"}, {"smiles": "Cc1ccc(CNC(=O)Cn2cc(S(=O)(=O)Cc3cccc(Cl)c3)c3ccccc32)cc1", "survival": "inactive: 85%"}, {"smiles": "COc1ccc(NC(=O)COc2ccc(S(=O)(=O)NC3CCCCC3)cc2)c(OC)c1", "survival": "inactive: 66%"}, {"smiles": "O=C(CCCc1nc(-c2ccccc2)no1)Nc1cc(C(F)(F)F)cc(C(F)(F)F)c1", "survival": "active: 19%"}, {"smiles": "O=C(CSc1nc(-c2ccccc2)c2ccccc2n1)Nc1ccc(F)cc1", "survival": "inactive: 82%"}, {"smiles": "CC1=C(C(=O)N2CCCCC2)C(c2cccc(Cl)c2)n2c(nc3ccccc32)N1", "note": "(configuration not stated)", "survival": "inactive: 64%"}, {"smiles": "Cc1cc(C)c(S(=O)(=O)NCCc2cc3ccc(C)cc3[nH]c2=O)c(C)c1", "survival": "inactive: 66%"}, {"smiles": "CCOc1ccc(CCNC(=O)c2ccc3c(c2)N(Cc2ccccc2)C(=O)c2ccccc2S3=O)cc1OCC", "note": "(configuration not stated)", "survival": "inactive: 71%"}, {"smiles": "O=C(CN(c1cc(C(F)(F)F)ccc1Cl)S(=O)(=O)c1ccccc1)NCCc1ccccc1", "survival": "inactive: 66%"}, {"smiles": "COc1ccc(-c2c(C#N)c(SCC(=O)Nc3ccc(Br)cc3)nc(C)c2C(=O)Nc2ccccc2)cc1", "survival": "inactive: 95%"}, {"smiles": "COC(=O)c1ccccc1NC(=O)c1cc2c(s1)-c1ccccc1OC2", "survival": "active: 39%"}, {"smiles": "O=c1c(Cl)c(N2CCCCC2)cnn1C12CC3CC(CC(C3)C1)C2", "survival": "inactive: 95%"}, {"smiles": "CC1CCN(S(=O)(=O)c2ccc3nc(NCc4ccc(F)cc4)ccc3c2)CC1", "survival": "inactive: 94%"}, {"smiles": "CCn1nnc2cc(C(=O)Nc3ccc(C)cc3Br)ccc21", "survival": "inactive: 118%"}, {"smiles": "CC(C)(C)OC(=O)N1CCC(c2nnc(SCc3ccccc3F)o2)CC1", "survival": "inactive: 57%"}, {"smiles": "CCOc1ccc(CCNc2ncnc3onc(-c4ccc(Cl)cc4)c23)cc1", "survival": "inactive: 76%"}, {"smiles": "COc1ccc(C)cc1NC(=O)C(=O)NCCc1csc2nc(-c3ccccc3F)nn12", "survival": "inactive: 72%"}, {"smiles": "O=c1c2oc3ccccc3c2n(Cc2ccccc2)c(=O)n1Cc1ccco1", "survival": "inactive: 95%"}, {"smiles": "Cc1nn2c(=O)cc(COC(=O)c3ccc(NC(=O)COc4ccc(Cl)cc4)cc3)nc2s1", "survival": "inactive: 107%"}, {"smiles": "CCN1C(=O)c2ccccc2S(=O)c2ccc(C(=O)N3CCN(c4ccccc4)CC3)cc21", "note": "(configuration not stated)", "survival": "inactive: 72%"}, {"smiles": "Cc1ccc(S(=O)(=O)c2nnn3c2nc(N2CCC(C)CC2)c2cc(Cl)ccc23)cc1C", "survival": "inactive: 78%"}]}]}
